Experimental data taken from PubChem BioAssay AID504832 (National Center for Advancing Translational Sciences (NCATS), 2011).
Screen size: about 310,000 compounds; about 18,000 (5.8%) were called active. The shares of active, inactive and inconclusive entries below differ from those in the screen. Calls follow the shape of the dose curve; as a rule, active = well fitted inhibition curve with a large enough effect; inconclusive = small, poorly fitted or top-dose-only effect, or another doubt; inactive = no such curve, though single readings can be large or run the other way. Potencies of inconclusive entries are left out as doubtful fits.

Experiment: Primary qHTS for delayed death inhibitors of the malarial parasite plastid, 48 hour incubation
Settings: P. falciparum luciferase growth in erythrocytes; series mostly up to 28.7 µM
In short: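 Here the parasites carry a stable luciferase gene and grow inside erythrocytes in Albumax-based RPMI medium with compound for one erythrocytic cycle. Activity is scored as loss of luminescent signal.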
Potency is read from the fitted curve at half-maximal effect; tags tell the direction and shape of the fitted curve.

| Structure (SMILES) | Potency |
| --- | --- |
| N#Cc1c(N)n(CCNC(=O)c2ccc(Cl)cc2)c2nc3ccccc3nc12 | inconclusive [inhibitor, single point] |
| COc1ccc(-c2[nH]ncc2CN2CCC(O)(c3ccc(Cl)cc3)CC2)cc1 | inconclusive [inhibitor, single point] |
| CC(C)c1nnc(NC(=O)CCc2ccccc2)s1 | inactive |
| COc1ccc(N/N=C(/C(C)=O)N2CCCc3ccccc32)cc1 | inactive |
| O=C(NCCc1ccc(Cl)cc1)C1CCC(CNc2nc(=S)[nH]c3ccccc23)CC1 (stereo unspecified) | inconclusive [inhibitor, partial curve, poor fit] |
| Cc1ccc(OCCC(=O)OCc2csc(CC(=O)Nc3ccccc3C)n2)cc1 | inactive |
| Fc1ccc(-c2nnc3sc(C4COc5ccccc5O4)nn23)cc1 (stereo unspecified) | inconclusive [inhibitor, partial curve, poor fit] |
| Cc1csc(NC(=O)CSc2ccc(-c3ccccc3)nn2)n1 | inconclusive [inhibitor, partial curve, poor fit] |
| CCOc1ccc(C2C3=C(CCCC3=O)N(CC(=O)O)C3=C2C(=O)CCC3)cc1 | inconclusive [inhibitor, single point] |
| COc1ccccc1C(CNC(=O)c1cc(S(=O)(=O)N2CCOCC2)ccc1C)N1CCCC1 (stereo unspecified) | inconclusive [inhibitor, single point] |
| CC(=O)Oc1ccc(C(=O)Nc2cc(NC(=O)c3ccc(OC(C)=O)cc3)cc(C(=O)NC(C)(C)C)c2)cc1 | inconclusive [inhibitor, partial curve] |
| CC(c1ccccc1)N1C(=O)OC(C)(C)C1(C)O (stereo unspecified) | inactive |
| CCOC(=O)C1(CCOc2ccccc2)CCN(S(=O)(=O)N(C)C)CC1 | inconclusive [inhibitor, partial curve, poor fit] |
| NC(=O)c1cc(C(N)=O)nc(Cl)n1 | inconclusive [inhibitor, partial curve, poor fit] |
| CCN(CC)c1ccc(/C=N/NC(=O)Cc2ccc(OC)c(OC)c2)cc1 | inconclusive [inhibitor, single point] |
| COc1ccc(NC(=O)c2cccc(N3C(=O)C4C5C=CC(C5)C4C3=O)c2)c(OC)c1 (stereo unspecified) | inconclusive [inhibitor, partial curve, poor fit] |
| O=C(COc1ccccc1)N/N=C/c1ccc([N+](=O)[O-])o1 | active: 8.28 µM |
| Cc1cccc(NS(=O)(=O)c2csc(C(N)=O)c2)c1C | inconclusive [inhibitor, single point] |
| CCOc1cc(NC(=O)C2CC2)c(OCC)cc1NC(=O)c1ccccc1OCC | active: 5.86 µM |
| Cc1ccc(C(c2nnnn2C2CCCCC2)N2CCN3CCCC3C2)cc1 (stereo unspecified) | inconclusive [inhibitor, partial curve, poor fit] |
| Oc1ccc(CN2CCCc3ccccc32)c2cccnc12 | active: 13.1 µM |
| O=C(OCc1cccc([N+](=O)[O-])c1)c1cccnc1Cl | inactive |

| Structure (SMILES) | Potency |
| --- | --- |
| COc1cccc(C2Nc3ccc4ccccc4c3C3=C2C(=O)CC(C)(C)C3)c1OCC(=O)O (stereo unspecified) | inconclusive [inhibitor, single point] |
| CCc1ccc(-c2csc3ncn(CC(=O)NCc4ccco4)c(=O)c23)cc1 | inconclusive [inhibitor, single point] |
| CCN(CC)c1ccc(NC(=O)COc2ccccc2C#N)cc1S(=O)(=O)Nc1ccc(OC)cc1 | active: 8.28 µM |
| CN(C(=O)CCc1nnc(-c2ccc(-c3ccccc3)cc2)o1)C1CCOCC1 | inconclusive [inhibitor, full curve, poor fit] |
| N#Cc1ccccc1OCc1cccc(S(=O)(=O)N2CCOCC2)c1 | inconclusive [inhibitor, single point] |
| O=S(=O)(c1ccc(F)cc1)N1CCN(C(=S)NC2CC2)CC1 | active: 2.62 µM |
| COC(=O)C1=C(CSc2nc3ccccc3o2)NC(=O)NC1c1cc(C)ccc1C (stereo unspecified) | inconclusive [inhibitor, partial curve] |
| Cc1cc(C)n2nc(C(=O)OCC(=O)N(C)C3CCCCC3)nc2n1 | inactive |
| Cc1ccc(-c2noc(CN3C(C)CCCC3C)n2)cc1 (stereo unspecified) | inconclusive [inhibitor, single point] |
| CCC(=O)NC(c1cc(Cl)c2cccnc2c1O)C1CC1 (stereo unspecified) | active: 3.7 µM |
| CN1CCN(C2=NC(=O)/C(=C/c3cn[nH]c3-c3ccccc3)S2)CC1 | inconclusive [inhibitor, single point] |
| CCC(Sc1nnc(-c2ccc(C)c(Cl)c2)n1CC)C(=O)Nc1nccs1 (stereo unspecified) | inconclusive [inhibitor, partial curve, poor fit] |
| CN(C)S(=O)(=O)c1ccc(Cl)c(C(=O)NNC(=O)Cn2ccc(C(F)(F)F)n2)c1 | inconclusive [inhibitor, single point] |
| CC(C)OC(=O)CSc1nnc(CNc2ccc(Cl)cc2)n1Cc1ccccc1 | inconclusive [inhibitor, single point] |
| CCCCCCc1cc2cc(C(=O)Nc3ccccc3OC)c(=O)oc2cc1O | inconclusive [inhibitor, single point] |
| Cc1cccc(NC(=S)NC2CCN(Cc3ccccc3)CC2)c1C | inconclusive [inhibitor, single point] |
| COc1ccccc1OCCCCCCN1CCOCC1 | inconclusive [inhibitor, full curve, poor fit] |
| Cc1c(CN2CC[C@@H](N3CCN(c4ccccn4)CC3)[C@H](O)C2)[nH]c2ccc(F)cc12 | inconclusive [inhibitor, partial curve] |
| COc1ccccc1Nc1nc(NCc2ccco2)nc(N)c1[N+](=O)[O-] | inconclusive [inhibitor, single point] |
| COc1ccc(C2=CC(=O)C[C@H](c3ccc4c(c3)OCO4)C2)cn1 | inconclusive [inhibitor, single point] |
| COc1ccc(C)cc1S(=O)(=O)N1CCN(S(=O)(=O)c2cc(C)ccc2OC)CC1 | inconclusive [inhibitor, partial curve] |
| COc1ccc(C2(CNC(=O)C(c3ccccc3)c3ccccc3)CCOCC2)cc1OC | inconclusive [inhibitor, partial curve] |

| Structure (SMILES) | Potency |
| --- | --- |
| COC(=O)c1[nH]c2c(c1C)C(=O)CC(c1ccc(C)cc1)C2 (stereo unspecified) | inconclusive [inhibitor, single point] |
| Cc1csc(=Nc2c(C)n(C)n(-c3ccccc3)c2=O)n1Cc1ccccc1 | inactive |
| O=C1CN(C(=O)CNCc2ccccc2)c2ccccc2N1 | inactive |
| CC1(C)CC(NCc2ccc3c(c2)OCO3)CCO1 (stereo unspecified) | inactive |
| Cc1cc2ccccn2c1C(=O)c1ccc([N+](=O)[O-])cc1[N+](=O)[O-] | inconclusive [inhibitor, partial curve, poor fit] |
| CCOc1ccc(C(C(=O)NCC2CCCO2)N(C(=O)c2snc(C(N)=O)c2N)c2ccc3c(c2)OCCO3)cc1 (stereo unspecified) | inconclusive [inhibitor, partial curve] |
| O=C(COc1ccc(Br)cc1F)N1CCN(c2ncccn2)CC1 | inconclusive [inhibitor, partial curve] |
| Cc1cc(C)nc(N2CCCC(C(=O)Nc3nnc(C(C)C)s3)C2)n1 (stereo unspecified) | inactive |
| COC(=O)c1cccc(NC(=O)CSc2nc3cccnc3n2C)c1 | inconclusive [inhibitor, partial curve] |
| CCN(CCC(=O)Nc1cc(OC)cc(OC)c1)Cc1ccccc1 | inconclusive [inhibitor, single point] |
| COc1ccc(C(C(=O)NC(C)(C)C)N(CCC(C)C)C(=O)CCC(=O)Nc2cc(C)on2)cc1 (stereo unspecified) | inconclusive [inhibitor, partial curve] |
| COC(=O)CNC(=O)C1(C)C=CCN1C(=O)c1ccccc1 (stereo unspecified) | inactive |
| S=C1NC[C@H](CC2CCCCC2)N1CC1CCCCC1 | inconclusive [inhibitor, full curve] |
| Cc1ccc(C)c(Nc2ccc(C(=O)NCCc3ccccc3)cn2)c1 | inconclusive [inhibitor, single point] |
| COc1cccc(N(C(=O)Cn2nnc(-c3ccc(C)cc3)n2)C(C(=O)NC(C)(C)C)c2c[nH]c3ccccc23)c1 (stereo unspecified) | active: 11.7 µM |
| COC(=O)c1ccc(/C=C/c2ccc3cccc(OC(C)=O)c3n2)cc1 | inactive |
| CCOC(=O)c1c(N)sc(N)c1C(=O)OCC | inconclusive [inhibitor, partial curve, poor fit] |
| CCOC(=O)Cc1csc(NC(=O)C(C)Oc2ccc3c(C)cc(=O)oc3c2)n1 (stereo unspecified) | inactive |
| COc1ccc(C(=O)Nc2ccccc2C(=O)NC(Cc2ccc(O)cc2)C(=O)NNC(=O)c2ccccc2Cl)cc1 (stereo unspecified) | active: 5.22 µM |
| COc1ccc(N2C(=O)C3CCCN3C2c2ccc(F)cc2)cc1Cl (stereo unspecified) | inconclusive [inhibitor, partial curve, poor fit] |
| COc1cc(NC(=O)c2cc([N+](=O)[O-])ccc2Br)ccc1NC(=O)c1ccco1 | inactive |
| CCCCN(C(=O)CSCC(=O)Nc1ccc(C)cc1)c1c(N)n(CC(C)C)c(=O)[nH]c1=O | inconclusive [inhibitor, single point] |
